In assay [1] the target is GST–AMPKα1 (human), expressed in HEK293 cells (human) (UniProt Q13131). The assay can be described thus: pull-down; GST-tagged AMPKα1 or AMPKα2 affinity purified on Glutathione-Sepharose from HEK293 lysates (ELB buffer, 150 mM NaCl, 0.1% NP-40, overnight at +4 °C, five washes), western blot for PIAS proteins. (Immunoblotting shows a protein as a band on a membrane.)
The target in assay [2] is GST–AMPKα2 (human), expressed in HEK293 cells (human) (UniProt P54646). The description is as above.
Assay [3] deals with endogenous AMPKα1 of immortalized MEFs (mouse (endogenous in MEFs)) (UniProt Q5EG47). The assay can be described thus: co-IP; lysates of immortalized MEFs (IP lysis buffer, 1% Triton X-100, 150 mM NaCl); IP with antibodies against AMPKα1 or AMPKα2 and protein G-Sepharose, control IgG and AMPKα1−/−;α2−/− MEFs as controls; western blot for PIAS4; all proteins endogenous.
Assay [4] addresses endogenous AMPKα2 of immortalized MEFs (mouse (endogenous in MEFs)) (UniProt Q8BRK8). Described as above.

Protein sequences, listed by entry. Tags and fused reporters are not part of them.
UniProt Q13131: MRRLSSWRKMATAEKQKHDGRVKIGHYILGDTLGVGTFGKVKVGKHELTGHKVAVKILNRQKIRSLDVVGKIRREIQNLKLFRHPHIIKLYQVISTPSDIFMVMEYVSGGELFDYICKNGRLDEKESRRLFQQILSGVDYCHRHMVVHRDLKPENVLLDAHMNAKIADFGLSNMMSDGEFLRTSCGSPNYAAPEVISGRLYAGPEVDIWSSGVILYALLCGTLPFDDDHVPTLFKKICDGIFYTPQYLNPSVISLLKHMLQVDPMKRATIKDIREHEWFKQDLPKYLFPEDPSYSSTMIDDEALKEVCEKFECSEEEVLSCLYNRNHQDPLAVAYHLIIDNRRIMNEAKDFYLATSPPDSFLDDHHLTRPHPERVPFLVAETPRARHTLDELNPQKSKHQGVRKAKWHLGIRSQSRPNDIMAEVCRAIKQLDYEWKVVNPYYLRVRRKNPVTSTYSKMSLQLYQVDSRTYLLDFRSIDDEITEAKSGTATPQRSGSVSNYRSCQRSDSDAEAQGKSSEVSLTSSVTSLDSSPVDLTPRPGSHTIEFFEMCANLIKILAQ
UniProt P54646: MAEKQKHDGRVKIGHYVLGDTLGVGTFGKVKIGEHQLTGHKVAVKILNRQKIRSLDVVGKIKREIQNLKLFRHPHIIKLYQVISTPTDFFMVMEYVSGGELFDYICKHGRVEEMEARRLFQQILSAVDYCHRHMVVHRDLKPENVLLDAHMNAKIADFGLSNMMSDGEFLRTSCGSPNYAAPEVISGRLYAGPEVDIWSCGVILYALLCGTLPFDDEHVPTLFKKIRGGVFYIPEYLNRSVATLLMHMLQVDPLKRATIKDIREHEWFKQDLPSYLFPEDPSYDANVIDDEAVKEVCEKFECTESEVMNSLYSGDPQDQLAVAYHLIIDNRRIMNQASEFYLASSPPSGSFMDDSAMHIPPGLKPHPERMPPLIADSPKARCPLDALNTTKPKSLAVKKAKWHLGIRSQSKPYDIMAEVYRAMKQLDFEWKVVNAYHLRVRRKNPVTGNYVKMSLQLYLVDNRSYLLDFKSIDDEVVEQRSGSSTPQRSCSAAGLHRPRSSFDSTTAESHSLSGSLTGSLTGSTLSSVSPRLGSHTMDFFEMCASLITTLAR
UniProt Q5EG47: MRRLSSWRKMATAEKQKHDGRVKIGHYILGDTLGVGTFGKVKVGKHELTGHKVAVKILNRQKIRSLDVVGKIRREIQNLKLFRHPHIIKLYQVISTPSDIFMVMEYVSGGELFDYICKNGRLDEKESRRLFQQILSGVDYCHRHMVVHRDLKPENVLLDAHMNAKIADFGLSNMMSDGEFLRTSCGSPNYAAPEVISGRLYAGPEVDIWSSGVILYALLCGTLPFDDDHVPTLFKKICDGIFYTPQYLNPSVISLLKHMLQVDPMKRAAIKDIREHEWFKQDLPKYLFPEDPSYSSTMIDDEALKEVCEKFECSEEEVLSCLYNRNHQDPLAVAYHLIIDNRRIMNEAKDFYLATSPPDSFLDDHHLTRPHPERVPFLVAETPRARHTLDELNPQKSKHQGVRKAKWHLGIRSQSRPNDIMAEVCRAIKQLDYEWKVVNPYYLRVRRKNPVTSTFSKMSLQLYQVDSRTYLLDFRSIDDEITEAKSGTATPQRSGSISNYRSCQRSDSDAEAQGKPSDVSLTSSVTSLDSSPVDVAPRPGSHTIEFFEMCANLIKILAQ
UniProt Q8BRK8: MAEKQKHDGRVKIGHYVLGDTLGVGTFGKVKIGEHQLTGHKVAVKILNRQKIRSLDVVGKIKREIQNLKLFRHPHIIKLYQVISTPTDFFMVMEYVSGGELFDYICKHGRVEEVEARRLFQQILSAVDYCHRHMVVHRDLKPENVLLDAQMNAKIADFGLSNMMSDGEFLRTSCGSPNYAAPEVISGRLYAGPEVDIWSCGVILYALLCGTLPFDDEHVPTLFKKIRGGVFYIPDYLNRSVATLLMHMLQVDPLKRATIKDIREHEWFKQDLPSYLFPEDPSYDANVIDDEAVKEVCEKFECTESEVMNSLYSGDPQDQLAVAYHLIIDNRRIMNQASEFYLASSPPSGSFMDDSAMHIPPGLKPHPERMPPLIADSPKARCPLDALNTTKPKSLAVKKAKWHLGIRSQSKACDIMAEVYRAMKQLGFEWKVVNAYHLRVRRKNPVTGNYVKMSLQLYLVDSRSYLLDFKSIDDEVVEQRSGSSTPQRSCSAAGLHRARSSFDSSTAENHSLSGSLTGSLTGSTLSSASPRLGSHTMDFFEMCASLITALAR
UniProt O88907: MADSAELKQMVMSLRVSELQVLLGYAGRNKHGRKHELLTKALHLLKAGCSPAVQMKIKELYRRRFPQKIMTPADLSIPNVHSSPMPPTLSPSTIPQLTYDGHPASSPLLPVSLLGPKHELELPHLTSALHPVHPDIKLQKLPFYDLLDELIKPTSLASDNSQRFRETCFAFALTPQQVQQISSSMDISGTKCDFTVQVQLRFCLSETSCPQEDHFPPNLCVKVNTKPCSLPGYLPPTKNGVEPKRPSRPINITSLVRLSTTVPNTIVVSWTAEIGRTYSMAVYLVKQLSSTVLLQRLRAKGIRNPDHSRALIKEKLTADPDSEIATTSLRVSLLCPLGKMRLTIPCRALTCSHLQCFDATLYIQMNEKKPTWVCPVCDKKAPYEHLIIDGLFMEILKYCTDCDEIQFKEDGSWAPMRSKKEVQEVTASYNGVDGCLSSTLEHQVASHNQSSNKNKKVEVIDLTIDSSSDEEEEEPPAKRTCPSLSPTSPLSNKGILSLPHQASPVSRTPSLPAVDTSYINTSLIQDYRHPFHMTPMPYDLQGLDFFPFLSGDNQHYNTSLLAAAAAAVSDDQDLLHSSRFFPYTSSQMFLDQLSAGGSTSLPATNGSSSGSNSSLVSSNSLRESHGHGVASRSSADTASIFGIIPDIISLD

Results are given in words; binding and its absence hold for the method and conditions named. Binding seen in cells or lysates may run through a third protein. Some results given as binding are weak or reduced against the parent protein; the word gives no strength. For some assays here: Sequences can lack the tags named with a protein.

Regarding “PIAS1 in HEK293 cells (pull-down with GST–AMPKα) (from UniProt O88907 1-651)”, the binding result in assay [1] and in assay [2] was “no binding” throughout.

B1: PIAS4 in HEK293 cells (pull-down with GST–AMPKα) (protein, UniProt Q9JM05 1-507)
chain: MAAELVEAKNMVMSFRVSDLQMLLGFVGRSKSGLKHELVTRALQLVQFDCSPELFKKIKELYETRYAKKSAEPGPQAPRPLDPLALHSMPRTPLSGPTVDYPVLYGKYLNGLGRLPTKTLKPEVRLVKLPFFNMLDELLKPTELVPQSAEKLQESPCIFALTPRQVEMIRNSRELQPGVKAVQVVLRICYSDTSCPQEDQYPPNIAVKVNHSYCSVPGYYPSNKPGVEPKRPCRPINLTHLMYLSSATNRITVTWGNYGKSYSVALYLVRQLTSSDLLQRLKTIGVKHPELCKALVKEKLRLDPDSEIATTGVRVSLICPLVKMRLSVPCRAETCAHLQCFDAVFYLQMNEKKPTWMCPVCDKPAAYDQLIIDGLLSKILSECEGADEIEFLAEGSWRPIRAEKEPSCSPQGPILVLGTSDANGLAPASSTPGIGSGLSGPGSAGSGAGAAGSLENGKTGADVVDLTLDSSSSSEDEDEDEDDDEDEDEGPRPKRRCPFQKGLVPAC
B1: the binding entry in assay [1] and in assay [2] was “binds” each time.

B2: endogenous PIAS4 of immortalized MEFs (protein, UniProt Q9JM05 1-507)
chain: MAAELVEAKNMVMSFRVSDLQMLLGFVGRSKSGLKHELVTRALQLVQFDCSPELFKKIKELYETRYAKKSAEPGPQAPRPLDPLALHSMPRTPLSGPTVDYPVLYGKYLNGLGRLPTKTLKPEVRLVKLPFFNMLDELLKPTELVPQSAEKLQESPCIFALTPRQVEMIRNSRELQPGVKAVQVVLRICYSDTSCPQEDQYPPNIAVKVNHSYCSVPGYYPSNKPGVEPKRPCRPINLTHLMYLSSATNRITVTWGNYGKSYSVALYLVRQLTSSDLLQRLKTIGVKHPELCKALVKEKLRLDPDSEIATTGVRVSLICPLVKMRLSVPCRAETCAHLQCFDAVFYLQMNEKKPTWMCPVCDKPAAYDQLIIDGLLSKILSECEGADEIEFLAEGSWRPIRAEKEPSCSPQGPILVLGTSDANGLAPASSTPGIGSGLSGPGSAGSGAGAAGSLENGKTGADVVDLTLDSSSSSEDEDEDEDDDEDEDEGPRPKRRCPFQKGLVPAC
Regarding B2, the binding result in assay [3] and in assay [4] was “binds” throughout.

B3: PIAS3 in HEK293 cells (pull-down with GST–AMPKα) (protein, UniProt O54714 1-628)
chain: MAELGELKHMVMSFRVSELQVLLGFAGRNKSGRKHELLAKALHLLKSSCAPSVQMKIKELYRRRFPRKTLGPSDLSLLSLPPGTSPVGSPGPLAPIPPTLLTPGTLLGPKREVDMHPPLPQPVHPDVTMKPLPFYEVYGELIRPTTLASTSSQRFEEAHFTFALTPQQLQQILTSREVLPGAKCDYTIQVQLRFCLCETSCPQEDYFPPNLFVKVNGKLCPLPGYLPPTKNGAEPKRPSRPINITPLARLSATVPNTIVVNWSSEFGRNYSLSVYLVRQLTAGTLLQKLRAKGIRNPDHSRALIKEKLTADPDSEVATTSLRVSLMCPLGKMRLTVPCRALTCAHLQSFDAALYLQMNEKKPTWTCPVCDKKAPYESLIIDGLFMEILNSCSDCDEIQFMEDGSWCPMKPKKEASEVCPPPGYGLDGLQYSAVQEGIQPESKKRVEVIDLTIESSSDEEDLPPTKKHCPVTSAAIPALPGSKGALTSGHQPSSVLRSPAMGTLGSDFLSSLPLHEYPPAFPLGADIQGLDLFSFLQTESQHYGPSVITSLDEQDTLGHFFQYRGTPSHFLGPLAPTLGSSHRSSTPAPPPGRVSSIVAPGSSLREGHGGPLPSGPSLTGCRSDVISLD
As for B3, the binding result in assay [1] and in assay [2] was “binds” in each case.

For the origin of these results see PMC4674823.
